Experimental data from PubChem BioAssay AID1508642 (National Center for Advancing Translational Sciences (NCATS), 2021).
In all, about 43,000 compounds went through this assay and about 200 (0.47%) were called active. About 12% were inconclusive and are not listed. The call rests on the fitted dose curve; in most records, active means well fitted cell-killing curve with a large enough effect; inconclusive means small, poorly fitted or top-dose-only effect, or effect the other way; inactive means flat fitted curve, though single readings scatter. This is one part of the list.

Experiment: Cell viability qHTS assay in S16 Pmp22-F2sN cells; further: nearly all actives have a fitted effect of over 65% in size
Details: S16 Pmp22-F2sN Schwann cells viability, CellTiter-Glo, 24 h; series mostly up to 57.5 µM; activity change, negative = cytotoxicity: at the top concentration
Method in brief: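 Used to flag compounds lowering reporter output through toxicity, this quantitative HTS measures ATP-based CellTiter-Glo luminescence in S16 Pmp22-F2sN Schwann cells after 24 h compound exposure at 37C.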
On the % scale 0 is the no-effect control and ±100 the full control effect; potency means the concentration at half of the fitted maximal effect.

SMILES	activity change, negative = cytotoxicity	Potency
Cc1cc(C)c(Cn2c3ccccc3c3cnn(CC(=O)NCc4cccs4)c(=O)c32)c(C)c1	inactive: 4.38%	
Cc1ccccc1CNC(=O)c1ccc2c(c1)c(C)c(C)n2C	inactive: -0.631%	
CN(C)c1ccc(CNC(=O)c2ccc(Cn3c(SCc4ccccc4)nc4cccnc43)cc2)cc1	inactive: -14.5%	
Cc1ccc(Cl)cc1NC(=O)C1CCN(c2nnc(C)c3c(C)n(-c4ccccc4)nc23)CC1	inactive: 1.53%	
CCc1ccc(CNC(=O)c2cnc3sc(N4CCCC4)nn3c2=O)cc1	inactive: -0.72%	
CCS(=O)(=O)N1CCCC(C(=O)NCCOC)C1 (stereo not given)	inactive: -2.72%	
Cc1ccc(NC(=O)CSc2nnc(-c3ccc([N+](=O)[O-])cc3)o2)c(C)c1	inactive: 0.66%	
Cc1ccc(C(=O)c2cn(CC(=O)Nc3ccc(C(C)C)cc3)c3nc(C)ccc3c2=O)cc1	inactive: -1.45%	
CCOc1ccc(C(=O)Cn2c(=O)n3nc(CCn4nc(C)cc4C)nc3c3cc(OC)c(OC)cc32)cc1	inactive: 0.64%	
Cc1ccccc1N1CCN(S(=O)(=O)c2nnc(NC(=O)c3ccc(C(C)C)cc3)s2)CC1	inactive: -6.72%	
COc1cc(NC(=O)c2cc(C3CC3)nc3c2c(C)nn3-c2ccccc2)cc(OC)c1	inactive: -18.6%	
Cc1ccccc1NC(=O)CC(NCc1cccnc1)C(=O)O (stereo not given)	inactive: 14.2%	
Cc1cc(C)cc(NC(=O)Cn2c(-c3cncs3)nc3ccccc32)c1	inactive: 19.6%	
Cc1cc(C)n(-c2nc3ccccc3nc2Nc2ccc(N(C)C)cc2)n1	inactive: 2.43%	
COc1ccccc1OC(C)C(=O)Nc1cccc(-c2nc3ccccc3s2)c1 (stereo not given)	inactive: -13%	
COc1ccc(-n2nc(C(=O)Nc3ccccn3)c3c4ccccc4n(C)c3c2=O)cc1	inactive: 17.8%	
CCOC(=O)c1ccc(NC(=O)c2cnc3c(-c4ccc(F)cc4)c(C)nn3c2C)cc1	inactive: -17.4%	
CCOc1ccc(-c2nc3c(c(SCC(=O)Nc4ccccc4C)n2)Cc2ccccc2O3)cc1	inactive: 0.712%	
COCCCNc1nc(NCc2ccccc2OC)c2cnn(C)c2n1	inactive: -0.283%	
COc1ccc(Br)cc1C1C(C(=O)Nc2ccc(C)cc2C)=C(C)Nc2ncnn21 (stereo not given)	inactive: 26.2%	
Cc1ccc(NC(=O)C2(c3cccs3)CCOCC2)cc1Cl	inactive: 8.41%	
CCOc1ccccc1NC(=O)c1c(NC(=O)COc2ccc(Cl)cc2)sc2c1CCCCC2	inactive: 2.97%	
COCCNC(=O)CCC(=O)NNc1nc2ccccc2c2nc(C)nn12	inactive: -1.8%	
CS(=O)(=O)N1CCc2cc(C(=O)N3CCN(c4cccc(Cl)c4)CC3)ccc21	inactive: -8.38%	

SMILES	activity change, negative = cytotoxicity	Potency
O=C(NCCc1ccccc1)c1nn(-c2ccccc2F)nc1CO	inactive: -2.7%	
Cc1ccc2c(CNCCc3ccccc3)c(C(=O)O)n(Cc3ccccc3C)c2c1	inactive: 13.1%	
COc1cccc(NC(=O)Cn2nnc(C(=O)NCc3cccs3)c2N)c1	inactive: -0.991%	
COc1ccc(NC(=O)Cn2c(=O)n(-c3cc(C)cc(C)c3)c(=O)c3oc4ccccc4c32)cc1OC	inactive: -29.7%	
Cc1ccc(C)c(CSc2nnc3[nH]c(=O)cc(C)n23)c1	inactive: -13.5%	
Cc1ccc(S(=O)(=O)n2nc(C)c(S(=O)(=O)N3CCCCCC3)c2C)cc1	inactive: 10.5%	
CCC(Cn1nnc2ccccc2c1=O)NC(=O)Nc1cc(C)cc(C)c1 (stereo not given)	inactive: 1.69%	
CC(C)C(=O)Nc1nnc2n1CCS2	inactive: 8.23%	
Cc1nc(N2CCCC2)c2c(C(=O)N3CCN(c4ccccc4)CC3)c(C)oc2n1	inactive: -3.14%	
CCOc1cc2sc(N3CCC(C(=O)Nc4ccc(CC)cc4)CC3)nc2cc1Br	inactive: 0.687%	
CCc1ccc(C(=O)c2cn(CC(=O)Nc3ccc(Cl)cc3)c3cc4c(cc3c2=O)OCO4)cc1	inactive: -0.748%	
Cc1ccc(Nc2nc3nonc3nc2Nc2cccc(C(F)(F)F)c2)cc1Cl		active: 11.2 µM
CCOC(=O)C1=C(CN2CCN(c3ccc(OC)cc3)CC2)NC(=O)NC1c1ccc(OC)cc1 (stereo not given)	inactive: 0.685%	
CCN(CC)CCCNc1oc(/C=C/c2ccc(OC)c(OC)c2)nc1C#N	inactive: 5.64%	
COc1ccc(NC(=O)Cn2cc(S(=O)(=O)N3CCN(c4ccccc4F)CC3)c3ccccc3c2=O)cc1Cl	inactive: 2.72%	
CCOc1ccc(-c2cc(C(=O)N3CCN(c4cc(Cl)ccc4C)CC3)c3ccccc3n2)cc1	inactive: -5.22%	
CNc1c(NC(=O)c2ccc(OC)c(OC)c2)c(=O)oc2ccccc12	inactive: -2.11%	
COc1cccc(CNC(=O)C2CCC(CNS(=O)(=O)c3ccc4c(c3)CCCC(=O)N4)CC2)c1 (stereo not given)	inactive: 1.96%	
CCN(CC)C(=O)Cn1c(=O)cc(C)c2c(C)nn(-c3cccc(Cl)c3C)c21	inactive: -29.4%	
Cc1ccc(NC(=O)CSc2nnc3scc(-c4ccc(Cl)cc4)n23)cc1	inactive: -13%	
Cc1cc2c(cc1S(=O)(=O)CCC(=O)N1CCC(C)CC1)OCC(=O)N2	inactive: 10.6%	
CCc1ccc(C(=O)c2cn(CC(=O)Nc3ccc4c(c3)OCO4)c3ccc(CC)cc3c2=O)cc1	inactive: -4.52%	
Cc1ccc(NC(=O)C(Cc2c[nH]c3ccccc23)NC(=O)OC(C)(C)C)c(C)c1 (stereo not given)	inactive: -16.7%	
Cc1cc(C)cc(NC(=O)NCCc2c(C)nn(C)c2C)c1	inactive: 9.11%	

SMILES	activity change, negative = cytotoxicity	Potency
COc1ccc(NC(=O)CN2C(=O)CCn3nc(-c4cccn4C)cc32)cc1	inactive: -5.65%	
Cc1cc(Nc2ccccc2F)n2nc(-c3ccccc3)nc2n1	inactive: 16.4%	
CCOC(=O)C1CCN(c2cc3c(cc2NC(=O)c2ccc(Cl)cc2)n(C)c(=O)n3C)CC1	inactive: 3.23%	
COC(=O)c1ccc(Cl)cc1NC(=O)N1CC2CCCN2c2ccccc21 (stereo not given)	inactive: 1.7%	
COc1ccc(S(=O)(=O)NCc2ccc3c(c2)CCN3C(=O)c2ccccc2)cc1OC	inactive: 1.88%	
Cc1cc(C)c(Nc2nc3ccccc3n3c(C)nnc23)c(C)c1	inactive: 3.09%	
CCOc1ccc(-c2c(C)nn3c(C)c(C(=O)NCc4cccc(OC)c4)cnc23)cc1OCC	inactive: 0.243%	
CC(C)(C)C(=O)Nc1ccc(-c2nc3ccccc3s2)cc1	inactive: 0.187%	
CCc1ccc(CN2C(=O)c3ccccc3C2C(=O)NC2CCCCCC2)cc1 (stereo not given)	inactive: 12%	
CCOC(=O)c1ccc(NC(=O)CC2C(=O)N(c3ccccc3)C(=O)N2Cc2ccc(C)cc2)cc1 (stereo not given)	inactive: -2.61%	
Cc1nn(C(=O)COc2ccc(Cl)cc2)c(C)c1Sc1ccccc1	inactive: 23.8%	
COc1ccc(C(=O)Nc2cnc3ccccn3c2=O)cc1	inactive: 18.7%	
COc1ccc(CCNC(=O)CCCn2c(=O)c3ccccc3n(CC(=O)Nc3cccc(C)c3)c2=O)cc1OC	inactive: 7.93%	
CCc1ccccc1Nc1nn2c(=O)c3ccc(C(=O)NC4CCC(C)CC4)cc3nc2s1 (stereo not given)	inactive: -11.7%	
CC(=O)Nc1ccc(S(=O)(=O)NCc2ccc3c(c2)CCN3C(C)=O)cc1	inactive: -12%	
Cc1oc(-c2ccccc2)nc1Cn1c(SCc2cccc(C(F)(F)F)c2)nc2cccnc21	inactive: -1.3%	
CCc1cnc2c(c1SCc1c(F)cccc1Cl)c(=O)n(C)c(=O)n2C	inactive: 6.24%	
COc1ccc(-n2ncc(C(=O)N3CCN(Cc4ccccc4)CC3)c2C2CCN(C(=O)OC(C)(C)C)CC2)cc1	inactive: -16.3%	
CCOc1cc(C(=O)N(Cc2nc(-c3ccc(C)cc3)no2)C(C)C)cc(OCC)c1OCC	inactive: -24.6%	
CCc1ccc(NC(=O)CSc2nc3n[nH]c(C)c3c(=N)n2-c2ccc(C)cc2)cc1	inactive: -3.29%	
O=C(Cc1ccc(NC(=O)N2CCCCc3ccccc32)cc1)NCc1ccccc1Br	inactive: 0.734%	
Cc1cccc(CCNC(=O)C2CCC(CNS(=O)(=O)c3c(C)cc(C)cc3C)CC2)c1 (stereo not given)	inactive: -28.7%	
COc1cc(Cl)c(C)cc1NC(=O)Cn1cc(S(=O)(=O)N2CCN(c3ccccc3F)CC2)c2ccccc2c1=O	inactive: 13.1%	
COc1ccccc1CNc1ccc(-c2nc(-c3ccccn3)no2)cc1[N+](=O)[O-]	inactive: -1.94%	

SMILES	activity change, negative = cytotoxicity	Potency
O=C(NCc1ccc(F)cc1)c1c2c(nc3ccccc13)C(=O)N(C1CCCCC1)C2	inactive: 3.22%	
COc1ccc(OC)c(NC(=O)CCNS(=O)(=O)c2cccc3nsnc23)c1	inactive: -0.947%	
Cc1ccc(NC(=O)CN(C)S(=O)(=O)c2ccc3c(c2)n(C)c(=O)c(=O)n3C)c(C)c1	inactive: 3.66%	
N#Cc1ccc(OC(=O)c2cc(-c3ccc(Cl)cc3)on2)cc1	inactive: 0.803%	
O=C(CCC1N=C2c3ccccc3N=C(SCC(=O)Nc3ccccc3F)N2C1=O)NCc1ccco1 (stereo not given)	inactive: -19.2%	
Cc1cccc(NS(=O)(=O)c2ccc3[nH]c(=O)[nH]c3c2)c1C	inactive: -26.6%	
CC1CCN(c2cc3c(cc2F)c(=O)c(S(=O)(=O)c2cccc(Cl)c2)cn3Cc2ccccc2)CC1	inactive: -4.36%	
COc1ccccc1CNS(=O)(=O)c1ccc(-c2cc(C(F)(F)F)on2)s1	inactive: -20%	
CC1CCc2c(sc(NC(=O)Cn3nnc(-c4ccc(C(F)(F)F)cc4)n3)c2C#N)C1 (stereo not given)	inactive: 0.532%	
COc1ccc(NC(=O)C(=O)NCCc2sc(-c3ccc(Cl)cc3)nc2C)cc1	inactive: -1.83%	
CCOc1ccccc1-c1noc(CSc2nnc(-c3ccccc3)n2-c2cccc(C)c2)n1	inactive: 4.66%	
CCOc1ccc(NC(=O)c2ccc3c(SCC(=O)O)c4c(nc3c2)CCC4)cc1	inactive: 4.59%	
COc1ccccc1NC(=O)N1CCN(c2nnc(C)c3c(C)n(-c4ccc(Cl)cc4)nc23)CC1	inactive: -2.85%	
CCOc1ccccc1NC(=O)COC(=O)c1cn(CC)c2nc(C)ccc2c1=O	inactive: 17.1%	
O=C(Nc1cccc(C(F)(F)F)c1)N1CCC(CN2CCCCCC2)CC1	inactive: 17.8%	
COc1ccccc1C(=O)Nc1ccc(NC(=O)c2cccs2)cc1	inactive: -0.565%	
CCOc1ccc(S(=O)(=O)NCC(c2ccco2)S(=O)(=O)c2ccc(C)cc2)cc1 (stereo not given)	inactive: -2.01%	
COc1ccc(Nc2cc(C(=O)NCCCN(C)Cc3ccccc3)c3ccccc3n2)c(OC)c1	inactive: 11.4%	
CCOc1ccc(NC(=O)c2ccc3snnc3c2)cc1	inactive: 13.9%	
CCOC(=O)c1cnc2ccc(OCC)cc2c1N1CCN(c2ccccc2F)CC1	inactive: -5.11%	
CCOC(=O)C1CCC(CN(Cc2ccc(OC)cc2)S(=O)(=O)c2ccc(F)c(C(=O)Nc3cc(C)ccc3C)c2)CC1 (stereo not given)	inactive: 1.43%	
Cc1cccc(-c2nc(CSc3nncn4c3cc3sccc34)c(C)o2)c1	inactive: 5.75%	
CCOC(=O)c1ccc(CN(Cc2ccccc2)S(=O)(=O)c2ccc(Cl)cc2)cc1	inactive: 0.187%	
